Reference: article PMC12136788
The other results are listed elsewhere or left out.

B1: chr18:58535911:58536012:-|CDS|ENSG00000198796|msi1|FALSE|unique (ssRNA)
RNA: GGGAGUUCUACAGUCCGACGAUCUCUGACCUGCCCUAAAAUCCUAGAGUCCUCUGUAGAUCCCAUUGAUGAGAUAAGUGUGAUAGAGUACACCAGGGCUGGAAAACCAGAGCCCUCUGAAACCACACCACAGGGCGCCAGAGACAACAGAGGAUUGAGCAUCA
B2: chr13:37103258:37104242:-|three_prime_utr|ENSG00000180138|control|control|control (ssRNA)
RNA: GGGAGUUCUACAGUCCGACGAUCAAUGAGGAACAGAAGAAGCAGAGCAGAUGAUUCGAGCAGCAUUUGUUUCUCCCCACAUCUAGAAAUUGUAGUUCAUAUGUACACCAGCUAGUGGCUGUGAACAACCAUUUAGUUGGUGUACAACAGAGGAUUGAGCAUCA
B3: chr17:79089344:79090882:-|three_prime_utr|ENSG00000167281|control|control|control (ssRNA)
RNA: GGGAGUUCUACAGUCCGACGAUCAGACAGUGUGGAGCCCAGCGGCGGCGGAGCAGGCCCGGGCCUGAGCAGGCAGGCGCUGCUAGCAAGACUUGAUCUUUGUGGCCAGCUGUGCCAGGGGGCCGGCGGGGCUGAGGGGUGCGGCAACAGAGGAUUGAGCAUCA
B4: chr19:58354356:58356138:-|three_prime_utr|ENSG00000174586|control|control|control (ssRNA)
RNA: GGGAGUUCUACAGUCCGACGAUCUGGGAGUGCAGGGGCGGCCUUGGGUGUGGAGAACCCUGGCUGCACAGUCCCUUUGACGAUAGUCCACCGGCCACCCAGGCCUGUCUGGGGACAUGUAGGAUGGGCUCUUACCCCAGGGAGCAACAGAGGAUUGAGCAUCA
B5: chr1:113128187:113128288:+|3pUTR|ENSG00000198799|unk|total|mutant (ssRNA)
RNA: GGGAGUUCUACAGUCCGACGAUCUCAUACUUAUUUUCAAUCCUAAGUGUUCUCCCAUGGGCAGCAGCACUUCUUGAGCUGUUCCGUACUGCCACACCUUUUUAUGUCUUUACUAUGUCAGCCUCUGAUCAUUUUCACUUUGAACAACAGAGGAUUGAGCAUCA
B6: chr2:219567275:219567376:-|CDS|ENSG00000124006|msi1|FALSE|unique (ssRNA)
RNA: GGGAGUUCUACAGUCCGACGAUCUGUGUGCCCUCCGAGGGUGACUACCGCUUCCGCAUCUGCACAGUCAGCGGACAUGGCCGUAGUCCCCACGUGGUGUUCCACGGUUCUGCUCACCUUGGUGAGUUGGUCCUGCCAGACCCACAACAGAGGAUUGAGCAUCA
B7: ENSG00000168003:stop:overlap|stop_codon|ENSG00000168003|stop_codon|NA|stop_codon (ssRNA)
RNA: GGGAGUUCUACAGUCCGACGAUCCUGACAUCCCAGGGGCUGUAAGUGCCAACAUGACUGUGAAGGUAAGAGUUCUAGAUGGGUAGAAACUGACCGGUGGAGGGUGGGCUGGGCUUGUAGAAGUCUGUACCCAGGGGAGCCCCUCAACAGAGGAUUGAGCAUCA
B8: chr1:154207159:154207278:-|3pUTR|ENSG00000143612|msi1_unk|FALSE|overlapping (ssRNA)
RNA: GGGAGUUCUACAGUCCGACGAUCUUCCCCAACCCUUCCUUAUGAGCAUUUUUAGAACAUUGGCUAAGACUAUUUUCCCCCAGUAGCGCUUUUUUCUGGAUUUGCAUUCAGGUGUUAUUCUUAAUGUUUCUGUCAAAGCUUCUUCAACAGAGGAUUGAGCAUCA
B9: chr17:2300308:2300409:-|CDS|ENSG00000070366|unk|total|mutant (ssRNA)
RNA: GGGAGUUCUACAGUCCGACGAUCGACCCAGAAAAUAAUCGGGGACAAGAAUCCUUUCCCCGGACUGCUGGACAAGAGGAUCGCCGUCUAAAAAUUAUCAAAAGAACAAAGAAACCCGACCUGCAGAUCUAUCAGCCUGGACGACAACAGAGGAUUGAGCAUCA
B10: chrX:47636291:47636398:-|3pUTR|ENSG00000126767|unk|FALSE|unique (ssRNA)
RNA: GGGAGUUCUACAGUCCGACGAUCGCCUGCCCUUGGGGAGAUGAGGGAGCCCUGUCUGCGUUUUUGGAUGUGAGUAGAAGAGUUAGUUUGUUUUGUUUUAUUAUUCCUGGCCAUACUCAGGGGUCCAGGAAGAAUUUGUACCAUCAACAGAGGAUUGAGCAUCA
B11: chr10:106575406:106575507:-|3pUTR|ENSG00000108018|unk|FALSE|unique (ssRNA)
RNA: GGGAGUUCUACAGUCCGACGAUCUUAUGGACUGGGCAAAGCCCACUAUAAACUAUAGGAGAAAGAAGUUCUGAUAAACCUCUUAGUAUGCUCAGCCUCCUUCUUUGCUAUGUCCCUAAGCCAACAGGGUAUAACACAGGCCCUCAACAGAGGAUUGAGCAUCA
B12: chr6:36925443:36925544:+|3pUTR|ENSG00000198663|msi1|FALSE|unique (ssRNA)
RNA: GGGAGUUCUACAGUCCGACGAUCGAGGCAUCCCGUGGGAAAGUCCCCUAAGUCCCAUUUUGUACUUCAACAAAAAAUGACUGUAGCAGAAGAUAAGUGGAGACUUUUAUGGAUAUACUACUCAUUUUACUUAAAAUCUACCCACAACAGAGGAUUGAGCAUCA
B13: ENSG00000023516:stop:overlap|stop_codon|ENSG00000023516|stop_codon|NA|stop_codon (ssRNA)
RNA: GGGAGUUCUACAGUCCGACGAUCAAAAAGCUUCCAGUGAGGAGAGAUGCAAGUCGCUGUUUGAUUGGCUCUUGGAAAAUGCAUAGAGCAAACCCCAAACCAGUAUAUUUUAGUAUUUGUUUGGGGAGGGGAACAAGCCAAUAACAACAGAGGAUUGAGCAUCA
B14: ENSG00000107021:stop:overlap|stop_codon|ENSG00000107021|stop_codon|NA|stop_codon (ssRNA)
RNA: GGGAGUUCUACAGUCCGACGAUCACCCCAUCACAGAUGUCUGCCAGAUCCUGCAGAAAGCCAAGGAGCUCCAAGACUCAAAGUAGCCCGGCGGCAAGAGGCCCAUGUUCCGGAGAGAAGCCUCCCGACCCUGUGCCCUGGCUCCAACAGAGGAUUGAGCAUCA
B15: chr3:139561012:139561392:-|CDS|ENSG00000163864|control|control|control (ssRNA)
RNA: GGGAGUUCUACAGUCCGACGAUCGAAGGAUGCGCACAUCCAGGAAAUAGUGGAGAAGUUUGGCUUGGUGUGCGUGGGCCGAGUAGGUCACGACCCAAAAGGUUACAUCGCAGAAUCUCCCAUCCUACGGAUGCACCAGCACAACAACAGAGGAUUGAGCAUCA
B16: chrX:153695679:153695780:+|3pUTR|ENSG00000130821|msi1|FALSE|unique (ssRNA)
RNA: GGGAGUUCUACAGUCCGACGAUCGGCAGCAGAACCAAGGCAAAUAUUUCAGCUGGGCUAUACCCCUCUCCCCAUCCCUGUUAUAGAAGCUUAGAGAGCCAGCCAGCAAUGGAACCUUCUGGUUCCUGCGCCAAUCGCCACCAGCAACAGAGGAUUGAGCAUCA
B17: chr17:15628647:15628976:-|three_prime_utr|ENSG00000221926|control|control|control (ssRNA)
RNA: GGGAGUUCUACAGUCCGACGAUCUUUCCGGAGGCUCGGGGUCUAUAUCGACUUCCCGGGAGGGAUCCUUUCCUUCUAUGGCGUAGAGUAUGAUACCAUGACUCUGGUUCACAAGUUUGCCUGCAAAUUUUCAGAACCAGUCUACAACAGAGGAUUGAGCAUCA
B18: chr6:56640275:56640385:-|CDS|ENSG00000151914|unk|total|mutant (ssRNA)
RNA: GGGAGUUCUACAGUCCGACGAUCGACUUCCCGCCUGACUCCAUCUGUCACUCCAGCUUAUACACCUGGUUUCCCAUCAGGAUCCGUUCCAAAUUUCAGUUCAGGAGCCGAGCCAAAUUCAUUGCAAACUUUGAAGUUGAUGCACAACAGAGGAUUGAGCAUCA
B19: chr19:45844017:45844118:-|CDS|ENSG00000125755|msi1|FALSE|unique (ssRNA)
RNA: GGGAGUUCUACAGUCCGACGAUCGCCCGCCAGAGACCCAUGUUCAUGUCUGAGGUGAUCCAGGCCUAUGAAACUCUGCAUGGUAGGUCAUUGUCCUCCCCCCUCCCCCUGCCUUCUCUUCACUGGCCAGUCUGCUCUUUCUUUCAACAGAGGAUUGAGCAUCA
B20: chr19:1925360:1925461:+|3pUTR|ENSG00000227500|msi1|FALSE|unique (ssRNA)
RNA: GGGAGUUCUACAGUCCGACGAUCUCUCGAACUCCUGACCUCAAGUGAUCCACCCGCCUUGGCCUCCCAAAGUGCUGGGAUAAUAGGUGUCAGCCACCGCGCCCAGCCUGGAGUGGCCUUUUAUGAGAGGGGACCCGUCAAAUCCAACAGAGGAUUGAGCAUCA
B21: chr3:52707940:52708050:+|3pUTR|ENSG00000114902|msi1_unk|total|mutant (ssRNA)
RNA: GGGAGUUCUACAGUCCGACGAUCUUCCGUUCUCUUUAUACUUCAUUUCCCGCCCAGUUGGGUUUUGAUUUAUAUAAGCCGUUCCGACCUUCUCUUCAUAAUCUUGCUCUGAGAUGGGGAACAGAACACACAAGUAUGAAGUUUCAACAGAGGAUUGAGCAUCA
B22: chr19:46720021:46720126:-|3pUTR|ENSG00000090372|unk|FALSE|unique (ssRNA)
RNA: GGGAGUUCUACAGUCCGACGAUCGCCGCUCCUGGUAUCAGAGCUGCUUUCCAGAGGGCAGCACAGCCAGGGCCGGGUGUCUUUAGGGAUCAGUUUUUCCAAGACUCCAGAAGGUGCCAGGUUCUCCCCUUGAGCUCCUGCUCCCAACAGAGGAUUGAGCAUCA

What follows are binders tested against MSI1 full-length (mouse, UniProt Q61474 1-362) (assay: nsRBNS (natural sequence RNA bind-n-seq); RBNS binding buffer (assumed for nsRBNS): 25 mM Tris pH 7.5, 150 mM KCl, 3 mM MgCl2, 0.01% Triton X-100, 500 ug/ml BSA, 20 U/ml SUPERase-In, 4 C; UNK is unkempt and MSI1 is Musashi-1; names of the RNAs are library labels; protein concentration not given here; high values mean tight binding).
Chain of UniProt Q61474 (Q61474 whole entry): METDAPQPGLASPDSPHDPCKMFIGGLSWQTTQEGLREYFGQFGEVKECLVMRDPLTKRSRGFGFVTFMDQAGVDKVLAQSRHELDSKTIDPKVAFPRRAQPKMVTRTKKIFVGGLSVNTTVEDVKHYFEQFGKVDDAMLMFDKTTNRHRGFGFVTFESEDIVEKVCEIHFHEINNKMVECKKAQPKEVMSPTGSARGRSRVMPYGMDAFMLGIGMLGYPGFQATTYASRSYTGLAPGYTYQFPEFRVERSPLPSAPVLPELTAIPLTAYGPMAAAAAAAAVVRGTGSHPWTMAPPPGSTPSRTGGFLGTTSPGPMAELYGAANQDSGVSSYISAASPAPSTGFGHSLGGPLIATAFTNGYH
With B1 the binding signal was 1.02 enrichment R. Work on B2 yielded a binding signal of 0.624 enrichment R. For B3, the binding signal was 0.344 enrichment R. For B4, the binding signal was 0.543 enrichment R. B5 showed a binding signal of 0.666 enrichment R. B6 was tested, and the binding signal was 0.342 enrichment R. For B7, the binding signal was 0.543 enrichment R. B8 was tested, and the binding signal was 1.02 enrichment R. B9 showed a binding signal of 0.503 enrichment R. For B10, the binding signal was 7.37 enrichment R. With B11 the binding signal was 0.825 enrichment R. Work on B12 yielded a binding signal of 0.596 enrichment R. In the case of B13, the binding signal is reported as 0.65 enrichment R. With B14 the binding signal was 0.38 enrichment R. For B15, the binding signal was 0.51 enrichment R. B16 gave a binding signal of 1.95 enrichment R. B17 showed a binding signal of 0.288 enrichment R. For B18, the binding signal was 0.383 enrichment R. B19 gave a binding signal of 0.782 enrichment R. In the case of B20, the binding signal is reported as 0.362 enrichment R. B21 gave a binding signal of 0.272 enrichment R. B22 was tested, and the binding signal was 0.456 enrichment R.
